# Results reported in publication PMC4336329 (PLoS ONE, 2015).
# In all, about 310,000 compounds went through this assay and about 2,200 (0.71%) showed an effect of 50% or more. The effect is printed as a negative number. This is one part of the list.
# Molecular target: human ether-à-go-go-related gene (hERG) potassium channel (human, UniProt Q12809)
# Assay: primary screen, population patch clamp on CHO cells stably expressing hERG
# human ether-à-go-go-related gene (hERG) potassium channel, sequence (Q12809 whole entry, looked up): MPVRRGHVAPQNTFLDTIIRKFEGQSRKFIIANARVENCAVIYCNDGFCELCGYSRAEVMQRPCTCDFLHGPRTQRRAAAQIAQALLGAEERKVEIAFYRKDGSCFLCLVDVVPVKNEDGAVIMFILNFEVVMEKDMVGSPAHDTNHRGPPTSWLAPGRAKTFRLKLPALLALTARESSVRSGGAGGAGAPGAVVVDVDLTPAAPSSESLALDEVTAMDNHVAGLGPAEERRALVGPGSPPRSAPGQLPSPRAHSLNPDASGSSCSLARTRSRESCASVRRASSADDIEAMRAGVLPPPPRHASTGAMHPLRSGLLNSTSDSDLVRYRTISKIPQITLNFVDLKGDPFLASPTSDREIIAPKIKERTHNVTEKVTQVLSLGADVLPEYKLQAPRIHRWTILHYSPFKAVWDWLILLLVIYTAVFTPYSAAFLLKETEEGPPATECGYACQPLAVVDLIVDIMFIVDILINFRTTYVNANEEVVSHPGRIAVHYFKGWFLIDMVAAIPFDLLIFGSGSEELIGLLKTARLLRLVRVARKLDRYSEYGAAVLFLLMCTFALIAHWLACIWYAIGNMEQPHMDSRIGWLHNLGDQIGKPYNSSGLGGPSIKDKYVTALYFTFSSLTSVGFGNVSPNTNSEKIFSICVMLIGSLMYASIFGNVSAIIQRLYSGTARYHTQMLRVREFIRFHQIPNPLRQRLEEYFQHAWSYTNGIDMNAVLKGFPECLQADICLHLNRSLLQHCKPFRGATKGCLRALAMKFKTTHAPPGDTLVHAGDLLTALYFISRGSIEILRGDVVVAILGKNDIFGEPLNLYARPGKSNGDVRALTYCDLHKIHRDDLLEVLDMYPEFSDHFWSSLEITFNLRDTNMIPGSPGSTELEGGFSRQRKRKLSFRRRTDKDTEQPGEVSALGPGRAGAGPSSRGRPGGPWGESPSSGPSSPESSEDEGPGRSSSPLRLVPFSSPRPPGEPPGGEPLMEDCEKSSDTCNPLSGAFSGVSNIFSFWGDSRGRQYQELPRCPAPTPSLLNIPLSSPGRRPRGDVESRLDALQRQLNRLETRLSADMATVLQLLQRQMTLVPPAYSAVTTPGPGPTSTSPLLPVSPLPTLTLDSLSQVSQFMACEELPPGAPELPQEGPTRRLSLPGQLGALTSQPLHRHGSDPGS
row,Structure (SMILES),"hERG current change (%, negative = inhibition) at 1uM [%]"
1,Cc1cc(NC(=O)NC(C)(C(F)(F)F)C(F)(F)F)no1,9.95
2,COc1ccccc1/C=C/C(C)=O,12.4
3,CC1=C(C(=O)OC(C)C)C(c2ccncc2)n2ncnc2N1 (centres unmarked),7.05
4,C=C(C)COc1ccc(-c2nc(N)ncc2-c2ccc(Br)cc2)c(O)c1,20.8
5,CN(C(=O)c1ccc2nccnc2c1)C1CCCCC1,13.8
6,Cc1cc(C)n(-c2cc(C(C)(C)C)nc3c(-c4ccc(Cl)cc4)cnn23)n1,-1.68
7,Cc1ccc(S(=O)(=O)NNC(=S)Nc2cccc(C)c2C)cc1,2.3
8,CCOC(=O)CN(C(=O)CSc1nnc(-c2ccncc2)n1CCCOC)c1ccccc1,15.5
9,O=C(O)c1cc2nc(-c3ccccc3)cc(-c3ccccc3)n2n1,7.72
10,O=C(O)c1ccc(NS(=O)(=O)c2ccc(Cl)c(C(=O)Nc3ccccc3)c2)cc1,11.4
11,COc1ccc(/C=N/NC(=O)Cc2cc(OC)c(OC)cc2[N+](=O)[O-])cc1,15
12,CCOC(=O)c1[nH]c(COC(=O)C2CC(=O)N(Cc3ccccc3)C2)c(C(=O)OCC)c1C (centres unmarked),-4.18
13,O=C(NNC(=O)C1CCN(S(=O)(=O)c2ccc(Cl)cc2)CC1)c1ccccc1,11.5
14,Cc1ccc(NC(=O)Cc2cn3ccsc3n2)nc1,9.87
15,O=C(COc1ccc(S(=O)(=O)NCc2ccccc2)cc1)N1CCOCC1,4.14
16,CCn1cc(C(=O)NCC2CCCO2)c(=O)c2cc(F)c(N3CCN(C)CC3)cc21 (centres unmarked),12.5
17,Cc1[nH]c2ccc(C(=O)NC3CCCC3)cc2c1C,5.73
18,O=C(O)/C=C/c1ccc(S(=O)(=O)Nc2ccc(C(=O)NCC(=O)O)cc2)cc1,-1.16
19,C=CCc1cccc(CNc2c(C)n(C)n(-c3ccccc3)c2=O)c1O,4.43
20,COc1ccc(S(=O)(=O)N2CCOCC2)cc1NC(=O)CSc1nnc2ccccn12,6.39
21,O=C(Nc1nc(-c2ccccn2)cs1)c1cccc(-n2cnnn2)c1,-0.276
22,CCC(C)(C)NC(=O)C(c1cccs1)N(C(=O)c1ccn[nH]1)c1cccc(OC)c1 (centres unmarked),-23.4
23,O=C(NCC1CCOCC1)c1ccc2nc(Cc3cccc(Cl)c3)oc2c1,8.35

row,Structure (SMILES),"hERG current change (%, negative = inhibition) at 1uM [%]"
1,CCC(C(=O)Nc1cccc(C(=O)O)c1C)c1ccccc1 (centres unmarked),13.1
2,Cc1nc2c3ccccc3nc(NNC(=O)CCC(=O)NCCN3CCN(c4ccccc4)CC3)n2n1,6.33
3,Cn1c(SCC(=O)NCc2ccco2)nnc1-c1ccccc1,5.48
4,CCCn1c2ccccc2c2cnn(CC(=O)NC3CCC(C)CC3)c(=O)c21 (centres unmarked),24.2
5,COc1cc2c(cc1OC)CN(C(=O)c1cc(C3CC3)nn1-c1ccccc1)CC2,-3.34
6,Cc1ccc(NC(=O)CCC(=O)N/N=C/c2coc3ccccc3c2=O)cc1,9.08
7,CN(C)S(=O)(=O)c1ccc(NC(=O)c2ccc([N+](=O)[O-])cc2)cc1,9.94
8,S=C(NC1CCCCC1)N(CCc1nc2ccccc2[nH]1)C1CCCC1,12.4
9,Cc1cc(C)cc(NC(=S)NCc2ccncc2)c1,6.75
10,C/C=C/C(=O)NCCc1ccc(OC)c(OC)c1,4.29
11,CCC(CC)C(=O)NCCN1CCN(C(=O)C(CC)CC)CC1,14
12,COc1ccc(CCC(=O)Nc2ccccc2C(F)(F)F)cc1,16.1
13,O=C(Nc1ccc(Br)cc1)c1ccc(-n2cnnn2)cc1,13
14,CCCn1c(SCC(=O)N2CCCCC2)nnc1-c1ccccn1,6.39
15,COc1cc(OC)cc(OCC(O)Cn2cnc3cc(C)c(C)cc32)c1 (centres unmarked),8.38
16,CC(=O)N1CCN(C(=S)NC(=O)C23CC4CC(CC(C4)C2)C3)CC1,15.4
17,O=C(CN1CCOCC1)N/N=C/C(Br)=C\c1ccccc1,10.8
18,COc1cc(CC(=O)Nc2ccc3nc(C)sc3c2)cc(OC)c1OC,2.29
19,Cc1noc(C)c1C(=O)Nc1ccc(Cl)cc1C(F)(F)F,-2.48
20,Nc1nccc(-c2cc(-c3ccc(Cl)cc3Cl)no2)n1,10.5
21,CC(=O)c1c(C(C)=O)c(C)n(-c2nc(-c3cccs3)c(C)s2)c1C,17.3
22,C=CCNC(=O)C1CCC(CNc2nc(=S)[nH]c3ccccc23)CC1 (centres unmarked),25.1
23,COc1cc(C(=O)/C=C/Nc2ccc(NC(C)=O)cc2)cc(OC)c1OC,7.16

row,Structure (SMILES),"hERG current change (%, negative = inhibition) at 1uM [%]"
1,Cc1cc2[nH]ncc2cc1NC(N)=S,11.5
2,O=C(CSc1nc(-c2ccccc2)cc(=O)[nH]1)Nc1ccccc1,10.9
3,Cc1ccc(NC(=O)CSCC(=O)Nc2nnc(C3CC3)s2)cc1,10.1
4,Nc1nonc1-n1nnc(C(=O)N/N=C/c2ccoc2)c1CSc1ccc(Cl)cc1,11.4
5,COc1ccccc1CN1CC(C(=O)NCc2cc(F)cc(C(F)(F)F)c2)CCC1=O (centres unmarked),9.11
6,CSc1ncccc1C(=O)Nc1nc2ccc(F)cc2s1,16.2
7,COCCCn1c(=O)c2ccccc2n(CC(=O)N2CCCc3ccccc32)c1=O,-4.71
8,O=C1NC(=O)N(CCC2=CCCCC2)C(=O)/C1=C/c1ccc(O)cc1,2.46
9,O=C(N/C=N/OCc1ccc(Cl)cc1Cl)NOCc1c(Cl)cccc1Cl,6.81
10,c1ccc(-c2ncc(-c3ccn[nH]3)s2)cc1,9.65
11,CC1(C)CC(=O)C(C=Nc2cc(C(=O)c3ccccc3)ccc2N)=C(O)C1,1.02
12,CC(NS(=O)(=O)c1ccccc1)C1CC2CCC1C2 (centres unmarked),8.94
13,C=CCn1c(-c2ccccc2)nc2nc3ccccc3nc21,9.69
14,N#CC1(NC(=O)COC(=O)C2=COCCO2)CCCCC1,5.66
15,Nc1nc(Nc2ccccc2)nc(N2CCCC2)c1[N+](=O)[O-],7.03
16,COc1cccc(C(=O)Nc2ccc(F)c(F)c2F)c1,1.96
17,CCc1nnc(NC(=O)CCC(=O)NCCc2ccccc2)s1,14
18,CCN(C(=O)COC(=O)c1nn(-c2ccccc2)c(=O)c2ccccc12)C1CCS(=O)(=O)C1 (centres unmarked),-11.8
19,COc1cccc(OC)c1C(=O)Nc1nc(COc2ccccc2)cs1,13.5
20,CC(C)Cn1cc(F)c(=O)n(CC(C)C)c1=O,17.7
21,COc1cccc(NC(=O)CSc2nnc(Cn3cnc([N+](=O)[O-])n3)n2C)c1,16.3
22,O=C(Cc1ccc([N+](=O)[O-])cc1)N1CCCc2ccccc21,-5.83
23,Cc1cc(-c2ccccc2)nc(N/N=C/c2ccccc2F)n1,13.3

row,Structure (SMILES),"hERG current change (%, negative = inhibition) at 1uM [%]"
1,O=S(=O)(NCC(c1cccnc1)N1CCN(c2ccccc2)CC1)c1cccs1 (centres unmarked),-16.1
2,FC(F)(F)c1ccc2c(c1)N1CCCC1CN2 (centres unmarked),-2.23
3,Cc1cc(S(=O)(=O)Nc2ccc3cn[nH]c3c2)c(C)cc1Cl,2.93
4,COc1ccc(-c2cc(C(=O)N(C)CCc3ccc(OC)c(OC)c3)c3ccccc3n2)cc1,7.94
5,COc1ccc(Cl)cc1NC(=O)COC(=O)Cc1cccs1,6.22
6,O=C(CSc1ccc2ccccc2n1)N1CCC(c2noc3ccc(F)cc23)CC1,9.76
7,CCNc1nc(NCC)n2c(SCC(=O)O)nnc2n1,14.4
8,COc1ccc(-c2cc(C(F)(F)F)n3nc(C(=O)N4CCCCC4)cc3n2)cc1,4.13
9,COC(=O)c1ccc(NC(=S)NC2CCCCC2)cc1,0.326
10,CCOC(=O)C1CCN(C(=O)CCc2nnc3ccc(NCCCN4CCCC4=O)nn23)CC1,15.7
11,Cc1ccc(-n2c(-c3ccncc3)nnc2-c2ccco2)cc1,8.2
12,c1ccc(C2=NNC(=NC3CC3)SC2)cc1,-0.969
13,O=C(CSC1=NCCS1)NC1CCCCC1,13.9
14,COc1cc(/C=N/NC(=S)NCCc2ccccc2)cc(OC)c1OC,13.7
15,CCOC(=O)C(Cc1ccccc1)C(=O)Nc1ccccc1C (centres unmarked),7.9
16,Cc1ccc(N2C(=O)c3ccccc3NC2c2ccccc2O)cc1 (centres unmarked),14.9
17,Cc1csc(SCC(=O)Nc2ccccc2C)n1,11.4
18,O=C(O)c1cccc(-n2cccc2/C=C2/NC(=O)N(Cc3ccccc3F)C2=O)c1,13.7
19,COc1ccc(C(C)NC(=O)c2ccccc2)cc1 (centres unmarked),4.09
20,CCCCN1C2CCCC1CC(NC(=O)c1cccc(OC)c1)C2 (centres unmarked),-2.96
21,CCn1c(C)cc(/C=C2\C(=O)NC(=O)N(c3ccccc3C)C2=O)c1C,6.54
22,COc1cc(NC(=S)NCCc2ccccc2)c(OC)cc1NC(=O)C(C)C,1.49
23,O=C(NC1CCCC1)C1CCCN(S(=O)(=O)c2ccc(-n3cnnn3)cc2)C1 (centres unmarked),3.92
